Measured values taken from a collection of fitness landscapes (doi:10.1016/j.celrep.2020.107928).
Over roughly 81,000 sequences, “one-hybrid fitness for binding NBS DNA” has its median near -0.1; the highest 2% begin near 0.36. Some of the results follow.

B1: Caulobacter ParB omega fusion; a variant is named by its letters at X, in order, B8GW30 (parent)
chain: MESVVVGEPGMSEGRRGLGRGLSALLGEVDAAPAQAPGEQLGGSREAPIEILQRNPDQPRRTFREEDLEDLSNSIREKGVLQPILVRPSPDTAGEYQIVAGERAWRAAQRAGLKTVPIMVRELDDLAVLEIGIIENVQRADLNVLEEALSYKVLMEKFERTQENIAQTIGKSXSHVANXMRLLXLPDEVQSYLVSGELTAXHARAIAAAADPVALAKQIIEGGLSVRETEALARKAPNLSAGKSKGGRPPRVKDTDTQALESDLSSVLGLDVSIDHRGSTGTLTITYATLEQLDDLCNRLTRGI

Variants of: B1
Test: one-hybrid fitness for binding NBS DNA (the Noc-binding site; scaled: cognate 1, non-cognate 0); higher = stronger binding
Conditions: with NBS DNA site
In short: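 Caulobacter ParB libraries with four specificity codons randomised were screened by bacterial one-hybrid selection in the E. coli USO strain, using a HIS3 reporter whose site lies 19 bp from the promoter. Selection ran for 48 hours at 37°C on M9 lacking histidine, with 0.1 mM IPTG and 5 mM 3-AT. Plasmids were Illumina-sequenced before and after selection, three replicate libraries were pooled, and variants with under 10 reads were dropped. Fitness is the log change in each variant's read ratio to wild type, rescaled against the cognate and non-cognate sites.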

Variant | one-hybrid fitness for binding NBS DNA
QQSC | ≤ 0.2
LTMG | ≤ 0.2
SYYS | ≤ 0.2
PWRS | ≤ 0.2
PFPW | ≤ 0.2
WVAL | ≤ 0.2
PNFR | ≤ 0.2
CRFR | ≤ 0.2
PMVS | ≤ 0.2
YGQY | ≤ 0.2
NMIY | ≤ 0.2
HNRD | ≤ 0.2
QCDK | ≤ 0.2
PVNE | ≤ 0.2
RCEA | ≤ 0.2
RFMD | ≤ 0.2
NTRK | ≤ 0.2
KNPK | ≤ 0.2
HAHW | ≤ 0.2
SINL | ≤ 0.2
EHDA | ≤ 0.2

Variant | one-hybrid fitness for binding NBS DNA
QGTR | ≤ 0.2
SFPD | ≤ 0.2
MTEE | ≤ 0.2
YGAV | ≤ 0.2
QILQ | ≤ 0.2
QTQE | ≤ 0.2
DMMS | ≤ 0.2
WCNG | ≤ 0.2
QQQC | ≤ 0.2
QGRY | ≤ 0.2
QAET | 0.253
QYKV | 0.372
VSHK | ≤ 0.2
ILMS | ≤ 0.2
TRAD | ≤ 0.2
RSGD | ≤ 0.2
VTLY | ≤ 0.2
TTMM | ≤ 0.2
ANCV | ≤ 0.2
ALHF | ≤ 0.2
NKMR | ≤ 0.2

Variant | one-hybrid fitness for binding NBS DNA
YSRI | ≤ 0.2
FSEN | ≤ 0.2
PKLI | ≤ 0.2
SEKM | ≤ 0.2
AHMR | ≤ 0.2
TRSL | ≤ 0.2
IMMI | ≤ 0.2
SQMY | ≤ 0.2
EVCR | ≤ 0.2
RPWW | ≤ 0.2
LDKG | ≤ 0.2
SGNG | ≤ 0.2
GTPS | ≤ 0.2
RNGR | 0.21
RRST | 0.776
QDPC | ≤ 0.2
LAAR | ≤ 0.2
ATPS | ≤ 0.2
HIQR | ≤ 0.2
AVWL | ≤ 0.2
HVDQ | ≤ 0.2

Variant | one-hybrid fitness for binding NBS DNA
TGME | ≤ 0.2
PKHC | ≤ 0.2
TYLS | ≤ 0.2
QGIP | ≤ 0.2
YVTL | ≤ 0.2
PFAF | ≤ 0.2
VRLM | ≤ 0.2
RFCL | ≤ 0.2
WSLL | ≤ 0.2
IACV | ≤ 0.2
ALIF | ≤ 0.2
YLCV | ≤ 0.2
AGIC | ≤ 0.2
GHDL | ≤ 0.2
AMNC | ≤ 0.2
WLAL | ≤ 0.2
HVPL | ≤ 0.2
THNH | ≤ 0.2
QPWR | ≤ 0.2
GVMR | ≤ 0.2
MCTM | ≤ 0.2
